Binding signal data for 14 molecules are collected here from publication PMC12136788.

B1: chr15:71825291:71825392:-|3pUTR|ENSG00000066933|unk|FALSE|unique (ssRNA)
RNA: GGGAGUUCUACAGUCCGACGAUCUGAAGCUAUUUUUGUUAAUAUUCUGGUUACUGAAGUUUAUUGUAAAUAUGUAUGUAUAGUAGGCAUAUUUCUUUUUAACCUUGUGCUUCCCUCCUUCCCAUGGAAUUUCUUCCCACAGAUCAACAGAGGAUUGAGCAUCA
B2: ENSG00000124766:be:win_2151|3pUTR|ENSG00000124766|bound_else_gene|NA|bound_elsewhere_windowed (ssRNA)
RNA: GGGAGUUCUACAGUCCGACGAUCGUGUGACCGGCGCUAGGAAAUGACCCGAGAACCCCGUUGGAAGCGCAGCAGCGGGAGCUAGGGGCGGGGGCGGAGGAGGACACGAACUGGAAGGGGGUUCACGGUCAAACUGAAAUGGAUCAACAGAGGAUUGAGCAUCA
B3: ENSG00000189184:stop:overlap|stop_codon|ENSG00000189184|stop_codon|NA|stop_codon (ssRNA)
RNA: GGGAGUUCUACAGUCCGACGAUCUGGAUGCCAGUGAACUGGUGGCAGAGAUUAACAAACUGCUUCAAGAUGUCCGCCAGAGCUAGGAGAUUUUAGCGAAGCAUUUUUGUUUCCAUGUAUAUGGAAAUAGGGAACAACAACAACCAACAGAGGAUUGAGCAUCA
B4: chr7:127374855:127374969:-|CDS|ENSG00000048405|unk|total|mutant (ssRNA)
RNA: GGGAGUUCUACAGUCCGACGAUCCCCCGAAGCCAUAUAUCCAAGUGUGGACAAACGAGAAUAUAUUAUUAAGCCCGAACCCACCGAAACUAAUCAAAAUGCAGUAUUUCAAUAUAUUUCGAGGACUGAUAAUCCUAUUGAAGUCAACAGAGGAUUGAGCAUCA
B5: chr7:101138926:101139078:+|3pUTR|ENSG00000106366|msi1|FALSE|unique (ssRNA)
RNA: GGGAGUUCUACAGUCCGACGAUCUAUUUUAAAGACCAAUUUAUGGGAGAAUUGCACACAGAUGUGAAAUGAAUGUAAUCUAAUAGAAGCCUAAUCAGCCCACCAUGUUCUCCACUGAAAAAUCCUCUUUCUUUGGGGUUUUUCCAACAGAGGAUUGAGCAUCA
B6: chr7:6403675:6403689:+|3pUTR|ENSG00000136238|msi1_unk|FALSE|overlapping (ssRNA)
RNA: GGGAGUUCUACAGUCCGACGAUCACUGUCACUUGACCAAUACUGACCCUCUUUACCUCGCCCACGCGGACACACGCCUCCUGUAGUCGCUUUGCCUAUUGAUGUUCCUUUGGGUCUGUGAGGUUCUGUAAACUGUGCUAGUGCCAACAGAGGAUUGAGCAUCA
B7: chrX:154436128:154436291:+|3pUTR|ENSG00000071553|msi1_unk|FALSE|overlapping (ssRNA)
RNA: GGGAGUUCUACAGUCCGACGAUCAUUCUAGGGUCUCCUUUCUCCUUAUUUAUUCUUGUGGCUACAUCAUCCCUGGCUGUGGAUAGUGCUUUUGUGUAGCAAAUGCUCCCUCCUUAAGGUUAUAGGGCUCCCUGAGUUUGGGAGCAACAGAGGAUUGAGCAUCA
B8: ENSG00000070961:be:win_5151|3pUTR|ENSG00000070961|bound_else_gene|NA|bound_elsewhere_windowed (ssRNA)
RNA: GGGAGUUCUACAGUCCGACGAUCUAACAGAUUAGGUAAAAUGAGAUUACAUGAAAAGGUUCUAAAAUGAUAUAUUUAGAUGCAAUAAUUAACCAUAUGCUAGAAUGCCCACCUCUAAGCCAAUUGGAUUCUUUAGCUCUCUUUCAACAGAGGAUUGAGCAUCA
B9: chr9:128583791:128583907:+|CDS|ENSG00000197694|unk|FALSE|bound_elsewhere (ssRNA)
RNA: GGGAGUUCUACAGUCCGACGAUCCAACCAGCAACAGCAAUUUAAUCGCAAUGUUGAGGAUAUUGAAUUGUGGCUAUAUGAAGUAGAAGGUCACUUGGCUUCGGAUGAUUACGGCAAAGAUCUUACCAAUGUGCAGAACCUCCACAACAGAGGAUUGAGCAUCA
B10: chr5:151662667:151662729:-|3pUTR|ENSG00000113140|msi1_unk|total|mutant (ssRNA)
RNA: GGGAGUUCUACAGUCCGACGAUCGCCAGGCUGUUUCAGCCAGGAAGGCCAAAAUCAAGAGUGAGAUGCCGAAAGUUGUAAAACCGAAAAAGUGGAGUUGGUGAAUCGGUUGUUCUUUCCUCACAUUUGGAUGAUUGUCAUAAGCAACAGAGGAUUGAGCAUCA
B11: chr19:41330322:41331077:-|three_prime_utr|ENSG00000105329|control|control|control (ssRNA)
RNA: GGGAGUUCUACAGUCCGACGAUCGUCUGCACUAUUCCUUUGCCCGGCAUCAAGGCACAGGGGACCAGUGGGGAACACUACUGUAGUUAGAUCUAUUUAUUGAGCACCUUGGGCACUGUUGAAGUGCCUUACAUUAAUGAACUCCAACAGAGGAUUGAGCAUCA
B12: chr16:3436009:3436110:-|3pUTR|ENSG00000167981|unk|FALSE|unique (ssRNA)
RNA: GGGAGUUCUACAGUCCGACGAUCAUUAAAAUGAAGGCUCUUGCUAAAGUUAUUUUAAUUUUGUUUACGUAGUUUCUGACUUUUAGAAGGAGGAGAAUUUAUUUAUAUUUUGCCAGUUCUGCAGACAUAUCUAGGAAAGUAAAUCAACAGAGGAUUGAGCAUCA
B13: ENSG00000107863:be:win_1751|CDS|ENSG00000107863|bound_else_gene|NA|bound_elsewhere_windowed (ssRNA)
RNA: GGGAGUUCUACAGUCCGACGAUCAAAAAAUUCCACCAGAUCUAAAAACAUUGCAGUCAAACAGAAAUUUUCAGACUACUUGUGGAAUGUCACUGCCUCGGGGUAUUUCACAAGACAGGUCACCUCUUGUGAAAGUCCGAAGUACAACAGAGGAUUGAGCAUCA
B14: chr5:91369659:91369760:-|3pUTR|ENSG00000113369|msi1|total|mutant (ssRNA)
RNA: GGGAGUUCUACAGUCCGACGAUCUCAGCAUUUUCCAAGGUACCAAGUGUACUUAUUUUGUUGUUGUUGUUGUUGUUGUAUUUCCGAAGGAAUUCAGCUCUGAUGUUUUUAAAGAAAACCAGCAUCUCUGAUGUUGCAACAUACCAACAGAGGAUUGAGCAUCA

The list shows a part of the results.

For this test, the target named is MSI1 full-length (mouse, UniProt Q61474 1-362). Kind of test: nsRBNS (natural sequence RNA bind-n-seq); RBNS binding buffer (assumed for nsRBNS): 25 mM Tris pH 7.5, 150 mM KCl, 3 mM MgCl2, 0.01% Triton X-100, 500 ug/ml BSA, 20 U/ml SUPERase-In, 4 C; UNK is unkempt and MSI1 is Musashi-1; names of the RNAs are library labels; protein concentration not given here; high values mean tight binding.
Sequence of UniProt Q61474 (Q61474 whole entry): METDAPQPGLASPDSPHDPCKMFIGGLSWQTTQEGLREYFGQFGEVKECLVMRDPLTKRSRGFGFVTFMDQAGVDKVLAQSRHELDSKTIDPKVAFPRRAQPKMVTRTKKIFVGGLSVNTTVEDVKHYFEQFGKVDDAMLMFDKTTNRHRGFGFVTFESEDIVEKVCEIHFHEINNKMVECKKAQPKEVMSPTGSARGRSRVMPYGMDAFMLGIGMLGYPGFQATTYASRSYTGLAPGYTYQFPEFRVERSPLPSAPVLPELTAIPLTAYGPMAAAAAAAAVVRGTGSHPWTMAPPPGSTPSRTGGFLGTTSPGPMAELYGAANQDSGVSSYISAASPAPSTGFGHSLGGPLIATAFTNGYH
B1: the binding signal came out at 7.33 enrichment R.
As for B2, the figure is 0.547 enrichment R.
B3 came in with a binding signal of 3.3 enrichment R.
The same measure for B4: 0.508 enrichment R; for B5: 1.63 enrichment R; for B6: 0.655 enrichment R.
As for B7, the figure is 3.14 enrichment R; as for B8, 5.71 enrichment R.
As for B9, the figure is 0.516 enrichment R; as for B10, 0.583 enrichment R.
With B11, the binding signal is 3.15 enrichment R.
The same measure for B12: 19.1 enrichment R; for B13: 0.33 enrichment R; for B14: 0.263 enrichment R.
